Assay results published in PubChem BioAssay AID624417 (National Center for Advancing Translational Sciences (NCATS), 2012).
Out of some 410,000 compounds screened, about 6,400 (1.6%) were called active. The shares of active, inactive and inconclusive entries below differ from those in the screen. Calls come from the whole dose curve; as a rule, active = well fitted inhibition curve with a large enough effect; inconclusive = small, poorly fitted or top-dose-only effect; inactive = no such curve, though single readings can be large or run the other way. No potency is given beside an inconclusive call; the fits are too rough.

biological target: Glucagon-like peptide 1 receptor (Homo sapiens) (UniProt P43220); experiment: qHTS of GLP-1 Receptor Inverse Agonists (Inhibition Mode); settings: HEK293 GLP-1R CRE-luciferase, luminescence, 24 h, GLP-1R form is constitutively active; activity change, negative = inhibition: at 38.3 µM (top of the series) unless noted; note: nearly all actives have a fitted effect of over 55% in size
How it was run: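 Inverse agonists were sought by their lowering of basal cAMP reporter luciferase output in HEK293 cells stably carrying constitutively active human GLP-1R, after 24 h compound treatment.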
% is set by controls: 0 for no effect and ±100 for the full control effect; potency is the fitted concentration of half-maximal effect; tags give direction and shape of the fitted curve.

Chain of UniProt P43220 (P43220 whole entry, looked up): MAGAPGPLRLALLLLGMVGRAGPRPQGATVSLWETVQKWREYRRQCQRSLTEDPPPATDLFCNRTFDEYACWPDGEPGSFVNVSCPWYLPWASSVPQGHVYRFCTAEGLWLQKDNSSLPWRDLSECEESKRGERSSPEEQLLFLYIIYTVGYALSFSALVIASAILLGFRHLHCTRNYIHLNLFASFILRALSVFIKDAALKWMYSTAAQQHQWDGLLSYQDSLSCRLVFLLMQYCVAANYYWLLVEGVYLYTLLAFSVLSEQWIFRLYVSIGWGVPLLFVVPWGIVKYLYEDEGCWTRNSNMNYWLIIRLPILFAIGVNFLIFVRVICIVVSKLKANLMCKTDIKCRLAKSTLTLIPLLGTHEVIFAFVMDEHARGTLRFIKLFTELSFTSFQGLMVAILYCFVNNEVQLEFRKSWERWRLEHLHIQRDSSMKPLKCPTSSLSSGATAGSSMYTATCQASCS

Compound	Potency	activity change, negative = inhibition
CC1(C)C2CCC1(C)C(OC(=O)CNc1ccccc1)C2 (stereo not given)	inconclusive [inhibitor, partial curve, poor fit]	–
O=[N+]([O-])c1ccc2c(c1)C(N1CCOCC1)/C(=C/COc1ccc3ccccc3c1Br)O2 (stereo not given)	active: 2.82 µM	–
CCOC(=O)c1cc(-c2ccccc2)nc2nc(N(CC)CC)sc12	inconclusive [inhibitor, single point]	–
COc1cccc(/C=C/C(=O)c2ccc3c(c2)OCCO3)c1OC	inconclusive [inhibitor, single point]	–
CC1(C(=O)NCc2cccc3ccccc23)CCN1Cc1ccc(-c2ccccc2)o1 (stereo not given)	inconclusive [inhibitor, single point]	–
C/C(=N/N=C/c1ccc(N(C)C)cc1)c1ccccc1	inconclusive [inhibitor, partial curve, poor fit]	–
C=CCN1C(=O)N(c2ccc(F)cc2)C(=O)C1CC(=O)Nc1ccc(Cl)cc1 (stereo not given)	inconclusive [inhibitor, partial curve]	–
CC(CNC(=O)c1ccccc1Cl)c1ccccc1 (stereo not given)	–	inactive: -22.4%
Cc1ccc([C@@H]2C[C@H]3[C@@H](CN2S(=O)(=O)c2ccc(Cl)cc2)C(=O)C[C@@H](c2ccc(C)cc2)N3S(=O)(=O)c2ccc(Cl)cc2)cc1	inconclusive [inhibitor, full curve, poor fit]	–
CCC12CN3CC(C)(CN(C1)C3c1c(C)n(C)c3ccccc13)C2=O (stereo not given)	–	inactive: 13.1%
CC(C)c1cc(C(=O)N2CCCC(C(=O)c3ccc4ccccc4c3)C2)on1 (stereo not given)	inconclusive [inhibitor, partial curve, poor fit]	–
Cc1cc(C)cc(NC(=O)CN2CCC(NC(=O)c3cccc(F)c3)CC2)c1	inconclusive [inhibitor, partial curve, poor fit]	–
Cc1cccc(CNC(=O)c2ccc3nc(-c4ccccc4)c(-c4ccccc4)nc3c2)c1	–	inactive: -10.5%
Cc1ccc(NC(=O)C2(c3ccccc3)CCCC2)nc1	active: 3.55 µM	–
O=C(Nc1ccccn1)C1CCCN(c2ncnc3c2nc2n3CCCCC2)C1 (stereo not given)	inconclusive [inhibitor, full curve, poor fit]	–
COc1ccccc1OC(=O)CCN1c2ccccc2Sc2ccccc21	inconclusive [inhibitor, partial curve, poor fit]	–
Nc1nnc(SCC(=O)OCC(=O)c2ccccc2Br)s1	–	inactive: -23.3%
Cc1[nH]c2ccccc2c1/C=N/NC(=O)CNC(=O)c1ccccc1	inconclusive [inhibitor, partial curve, poor fit]	–
Cc1cc(C(=O)NNc2ccc(C)c(C)c2)no1	inconclusive [inhibitor, partial curve, poor fit]	–
O=C(Cn1c(=O)n(-c2ccccc2)c(=O)c2c3c(sc21)CCCC3)Nc1cccc(F)c1	–	inactive: 2.97%
Cc1ccccc1NC(=S)N(CCN1CCCCCC1)Cc1cccs1	inconclusive [inhibitor, partial curve, poor fit]	–
Cc1ccc(S(=O)(=O)N2CCC(C(=O)OCC(=O)N3CCCC(C)C3)CC2)cc1C (stereo not given)	inconclusive [inhibitor, single point]	–

Compound	Potency	activity change, negative = inhibition
COc1cccc(OCC(O)CNC(=O)c2oc3ccc(C)cc3c2C)c1 (stereo not given)	inconclusive [inhibitor, full curve, poor fit]	–
COCCCNc1ccn2nc(-c3ccc(CC(C)C)cc3)cc2n1	inconclusive [inhibitor, single point]	–
CCN(CC)S(=O)(=O)c1ccc(OC)c(NC(=S)Nc2ccc(C)c(C)c2)c1	inconclusive [inhibitor, single point]	–
O=C(Nc1ccc(C(F)(F)F)cc1)c1ccc(NC(=O)C2CCCO2)cc1 (stereo not given)	inconclusive [inhibitor, full curve, poor fit]	–
COc1cccc(N2CCN(c3ccc4nnc(CCC(=O)O)n4n3)CC2)c1	–	inactive: 5.44%
Cc1ccccc1N1CCN(CCCN2C(=O)CC(=C(c3ccccc3)c3ccccc3)C2=O)CC1	inconclusive [inhibitor, partial curve, poor fit]	–
CN1CCN(/C=N/c2sc3c(c2C#N)CCCCC3)CC1	inconclusive [inhibitor, partial curve]	–
CCc1ccc(S(=O)(=O)c2c(C(=O)c3ccc(C)c(C)c3)cnc3ccccc23)cc1	inconclusive [inhibitor, partial curve, poor fit]	–
COc1ccc(OC)c(S(=O)(=O)NC2CCSc3ccccc32)c1 (stereo not given)	inconclusive [inhibitor, single point]	–
CCOC(=O)c1c(-c2ccc(OC)cc2)csc1NC(=O)C1CCCO1 (stereo not given)	inconclusive [inhibitor, partial curve]	–
CCOc1ccc(OCC)c(NC(=O)C2CCN(c3nn4c(=O)cc(C)nc4s3)CC2)c1	inconclusive [inhibitor, partial curve, poor fit]	–
O=C(NC1CCCCC1)c1cccc(OCc2ccccc2)c1	inconclusive [inhibitor, partial curve, poor fit]	–
CC(C)Cc1nc(C(N)=O)c2[nH]c(=O)n(-c3ccc(F)cc3)c2n1	–	inactive: 3.22%
CCc1cc(-c2onc(C)c2-c2cscn2)c(O)cc1OC	inconclusive [inhibitor, partial curve, poor fit]	–
COc1cccc(CNC(=O)COc2ccc(C(=O)c3ccccc3)cc2)c1	inconclusive [inhibitor, single point]	–
CCCCCCn1cc(C(=O)O)c(=O)c2ccccc21	–	inactive: 2.49%
Cc1ccc(CNCC(O)(c2ccccc2)c2ccc(F)cc2)cc1 (stereo not given)	inconclusive [inhibitor, single point]	–
COc1ccc2c(c1)C=C([C@@H]1C[C@H]3CN(c4ccccc4)C(=O)[C@]34CCCN14)CO2	inconclusive [inhibitor, single point]	–
COc1ccc(-c2nc3ccccc3c(=O)n2CCOc2c(C)cccc2C)cc1	–	inactive: 31.3%
CCN(CC)S(=O)(=O)c1nnc(NC(=O)COc2cccc(C)c2)s1	–	inactive: 8.64%
Cc1cc(SCC(=O)c2cc3ccccc3o2)nc2ccccc12	–	inactive: 93.1%
Cc1ccc(-n2c(-c3ccccc3)n[nH]c2=S)c(C)c1	inconclusive [inhibitor, single point]	–

Compound	Potency	activity change, negative = inhibition
Cc1cccc(NC(=S)NC(=O)Cc2ccccc2)c1C	inconclusive [inhibitor, single point]	–
Cc1ccc(C(=O)NNC(=O)CNc2cccc(Cl)c2)cc1	–	inactive: -7.86%
Cc1cc(C(=O)COC(=O)c2ccc(NC(=O)CC#N)cc2)c(C)n1C1CC1	inconclusive [inhibitor, single point]	–
N#CC(Nc1ccccc1)c1ccccc1OCc1ccccc1 (stereo not given)	inconclusive [inhibitor, full curve, poor fit]	–
Cc1ccc(-c2nc(N)sc2-c2ccccc2)cc1C	inconclusive [inhibitor, single point]	–
CCOC(=O)c1c(C)[nH]c(C)c1C(=O)COC(=O)/C=C/c1ccco1	–	inactive: 5.28%
CCn1c(COc2c(C)cccc2C)nnc1SCC(=O)N1CCN(c2ccccc2)CC1	inconclusive [inhibitor, partial curve, poor fit]	–
Cc1ccc(CNCc2c(C(=O)O)c(C)n(Cc3ccc(C)cc3)c2C)cc1	–	inactive: -4.24%
O=C(Nc1c(C(=O)c2ccc(F)cc2)oc2ccccc12)c1cc(-c2ccccc2)on1	–	inactive: 5.45%
COc1ccc(Oc2ccc(/C=N/NC(=O)c3cccnc3)cc2[N+](=O)[O-])cc1	inconclusive [inhibitor, partial curve]	–
COc1ccccc1CNC(=O)c1csc(Cc2ccc(Cl)cc2)n1	inconclusive [inhibitor, single point]	–
CCN(CC)CCCC(C)NC(=O)c1c(NC(=O)c2ccccc2)sc2c1CCCC2 (stereo not given)	inconclusive [inhibitor, partial curve, poor fit]	–
COc1cc(NC(=O)CN2CCN(Cc3ccc4c(c3)OCO4)CC2)cc(OC)c1	inconclusive [inhibitor, single point]	–
Cc1ccc(CNC(=O)Cn2cnc3c(NCc4ccccc4)ncnc32)o1	inconclusive [inhibitor, partial curve, poor fit]	–
COc1ccc(-c2c(C)oc3c(CN4CCN(CCO)CC4)c(O)ccc3c2=O)cc1OC	–	inactive: 3.72%
Cc1ccc(F)cc1NS(=O)(=O)c1ccc(Cl)s1	inconclusive [inhibitor, partial curve]	–
CN(C)CCCN1C(=O)c2cccc3c([N+](=O)[O-])ccc(c23)C1=O	inconclusive [inhibitor, single point]	–
CC(C)Oc1cc(NC(=O)CSCC(=O)Nc2cccc(C(F)(F)F)c2)c(Cl)cc1Cl	inconclusive [inhibitor, single point]	–
Fc1cc(NC(=S)NCc2ccc(CNC(=S)Nc3ccc(Cl)c(F)c3)cc2)ccc1Cl	inconclusive [inhibitor, full curve, poor fit]	–
Cc1ccc(N(Cc2ccccc2)C(=O)c2cccc(F)c2)cc1	inconclusive [inhibitor, single point]	–
COC(=O)c1cc2ccsc2n1CC(=O)N1CCCc2ccccc21	inconclusive [inhibitor, single point]	–
